# Source: PubChem BioAssay (NCATS)
# The inconclusive results got no clear call from the source; some entries with a clear call stand among them for comparison. For some assays here: Potencies beside an inconclusive call are fits to weak or partial responses and may not hold up. More than one record can exist for a structure, and the calls need not agree. Activity calls are given as the source filed them. Calls follow the shape of the dose curve; as a rule, active = well fitted curve in the direction sought with a large enough effect; inconclusive = small, poorly fitted or top-dose-only effect, or another doubt; inactive = no such curve, though single readings can be large; an effect the other way counts as inactive or inconclusive.
# Key:
# [1] = Confirmation and Secondary Assay for Modulators of Hemoglobin Beta Chain Splicing at IVS2 705 locus (AID 930); conditions: HeLa EGFP-705 splicing reporter, GFP fluorescence, 48 h;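 also: GFP fluorescence per well restored by corrected splicing of the IVS2-705 intron in EGFP; potency is read from the fitted curve at half-maximal effect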
# Summary of the method: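 First, HeLa EGFP-705 cells are seeded at 500/well in Optimem with 2% FCS and left overnight. Next, compound or DMSO is added for 2 days. Finally wells are laser-scanned and total peak GFP intensity scored.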
# [2] = Cell Viability - LYMP1-002 - Assay at 16 hr (AID 948); conditions: LYMP1-002 lymphoblastoid cell viability; also: potency is read from the fitted curve at half-maximal effect
# Summary of the method: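 LYMP1-002 human lymphoblastoid cells, 2500/well, were treated with compounds for 16 hr at 37 C in complete medium. Viability was read as intracellular ATP by CellTiter-Glo luminescence, and AC50 was derived from a Hill fit to concentration-response data.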
# [3] = MultiTox-Fluor Cytotoxicity Assay - LYMP1-002 - Dead Cells (AID 960); conditions: LYMP1-002 lymphoblastoid cells, dead-cell protease fluorescence; series mostly up to 46.1 µM; also: potency is read from the fitted curve at half-maximal effect; nearly all actives have a fitted effect of over 60% in size
# Summary of the method: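 LYMP1-002 cells 2500/well; 5 hr 37 C pre-incubation; compound 16 hr 37 C; MultiTox-Fluor reagent 60 min RT; dead-cell fluor Ex/Em 485/520. Norm. to DMSO (0%) vs 15 uM tetraoctylammonium bromide (100%); Hill AC50.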
# [4] = MultiTox-Fluor Cytotoxicity Assay - LYMP1-002 - Live Cells (AID 955); conditions: LYMP1-002 lymphoblastoid live-cell protease fluorescence viability; also: potency is read from the fitted curve at half-maximal effect
# Summary of the method: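 Read-out is live-cell protease activity (cell-permeant GF-AFC substrate, fluorescence Ex/Em=405/510), where a decrease indicates acute toxicity. Human lymphoblastoid cells were treated 16 hours at 37 C in a concentration series, and AC50 values came from standard Hill modelling.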
# [5] = MultiTox-Fluor Cytotoxicity Assay - LYMP1-003 - Dead Cells (AID 961); conditions: LYMP1-003 lymphoblastoid cells, dead-cell protease fluorescence; also: potency is read from the fitted curve at half-maximal effect; nearly all actives have a fitted effect of over 70% in size
# Summary of the method: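 LYMP1-003 human lymphoblastoid cells (2500/well) exposed to compound 16 h at 37 C in complete medium; dead-cell protease read with bis-AAF-R110 fluorescence (Ex/Em 485/520) after 60 min at room temperature. Normalized to DMSO and 15 uM tetraoctylammonium bromide; AC50 from Hill fit.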
# [6] = Cell Viability - LYMP1-003 - Assay at 40 hr (AID 964); conditions: LYMP1-003 lymphoblastoid viability; series mostly up to 92.2 µM; also: potency is read from the fitted curve at half-maximal effect; nearly all actives have a fitted effect of over 60% in size
# Excerpt: NIH Chemical Genomics Center [NCGC]
# NIH Molecular Libraries Screening Centers Network [MLSCN]
# National Institutes of Environmental Health Sciences [NIEHS]
# National Toxicology Program [NTP]
# We have developed a 1536-well cell-based assay for quantitative high throughput screening (qHTS) against a number of cell lines to determine in vitro cytotoxicity of small molecules. This particular assay uses a human lymphoblastoid cell line (LYMP1-003) purchased from Coriell Institute for Medical Research.
# NCGC Assay Protocol Summary:
# The CellTiter-Glo luminescent cell viability assay (Promega) is a homogeneous method to measure the number of viable cells in culture. The end point readout of this assay is based on quantitation of intracellular ATP, an indicator of metabolic activity, using the luciferase reaction. Luciferase catalyzes the oxidation of beetle Luciferin to oxyluciferin and light in the presence of ATP. The luminescent signal is proportional to amount of ATP present.
# Using the CellTiter-Glo luminescent cell viability assay, the amount of cellular ATP was measured in the lymphoblastoid cell line with complete culture medium following compound treatment for 40 hours. The assay was performed in opaque white Kalypsys 1536-well plates. In the screen, tetraoctylammonium bromide was used as positive control. Library compounds were measured for their ability to cause acute toxicity in the cell line, as reflected by a decrease in intracellular ATP levels, in a concentration-dependent manner. […] AC50 values were determined from concentration-response data modeled with the standard Hill equation.
# qHTS protocol for CellTiter Glo lymphoblastoid cellular assay
# [Step] [Parameter] [Value] [Description]
# 1. Reagent; 5 uL; 2500 lymphoblastoid cells/well
# 2. Time; 5 hr; 37 C incubation
# 4. Controls; 23 nL; Tetraoctylammonium bromide 6.4pM to 92 uM
# 5. Time; 40 hr; 37 C incubation
# 6. Reagent; 5 uL; CellTiter Glo reagent
# 7. Time; 30 min; Room Temperature
# 8. Detection; Luminescence; Viewlux plate reader
# Keywords: cell viability, cytotoxicity, lymphoblastoid cell line, luminescence, NTPHTS, NTPHTS_NCGC, NIEHS, DSSTox, MLSMR, MLSCN, NIH Roadmap, qHTS, NCGC
# [7] = target: Pyruvate kinase PKM (Homo sapiens) (UniProt P14618); assay: qHTS Assay for Inhibitors of Human Muscle Pyruvate Kinase (AID 958); conditions: purified human PKM enzyme activity
# Chain of UniProt P14618 (P14618 whole entry, looked up): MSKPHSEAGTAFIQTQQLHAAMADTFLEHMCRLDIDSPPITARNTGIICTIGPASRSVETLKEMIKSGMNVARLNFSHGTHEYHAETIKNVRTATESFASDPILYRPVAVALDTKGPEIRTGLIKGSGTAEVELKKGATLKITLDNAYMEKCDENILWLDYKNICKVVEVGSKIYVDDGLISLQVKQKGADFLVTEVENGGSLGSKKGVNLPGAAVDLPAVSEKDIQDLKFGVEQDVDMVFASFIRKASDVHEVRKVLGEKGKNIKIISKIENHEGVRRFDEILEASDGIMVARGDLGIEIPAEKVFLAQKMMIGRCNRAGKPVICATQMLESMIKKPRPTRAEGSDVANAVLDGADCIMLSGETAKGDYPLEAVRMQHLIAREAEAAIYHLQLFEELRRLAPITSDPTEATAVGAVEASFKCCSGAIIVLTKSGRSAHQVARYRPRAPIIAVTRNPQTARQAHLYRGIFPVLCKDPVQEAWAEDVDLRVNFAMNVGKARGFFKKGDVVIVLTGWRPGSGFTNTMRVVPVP
# Summary of the method: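 Enzyme was run at intermediate activity so both inhibitors and activators could be detected. ATP formed from ADP and PEP by 0.1 nM human PKM2 during a 1 h room-temperature incubation was quantified by coupled luciferase luminescence.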
# [8] = MultiTox-Fluor Cytotoxicity Assay - LYMP1-001 - Dead Cells (AID 946); conditions: LYMP1-001 lymphoblastoid cells, dead-cell protease fluorescence; series mostly up to 92.2 µM; also: potency is read from the fitted curve at half-maximal effect
# Summary of the method: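 LYMP1-001 lymphoblastoid cells (2500/well) treated 16 h at 37 C. Dead-cell protease cleavage of bis-AAF-R110 read at Ex/Em 485/520. Normalized to DMSO and 15 uM tetraoctylammonium bromide; AC50 from Hill fits.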
# [9] = Cell Viability - LYMP2-004 (AID 966); conditions: LYMP2-004 lymphoblastoid cell viability, qHTS; series mostly up to 92.2 µM; also: potency is read from the fitted curve at half-maximal effect; nearly all actives have a fitted effect of over 65% in size
# Summary of the method: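 Cells seeded 2500/well, rested 5 hr at 37 C, dosed across a concentration series, incubated 24 hr at 37 C, then CellTiter-Glo added for 30 min at room temperature and luminescence read. Hill fitting gave AC50.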
# [10] = Cell Viability - LYMP2-005 (AID 967); conditions: LYMP2-005 lymphoblastoid cell viability; series mostly up to 92.2 µM; also: potency is read from the fitted curve at half-maximal effect
# Summary of the method: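 Human lymphoblastoid LYMP2-005 cells, 2,500 per well in complete medium, rested 5 h at 37C then compound-treated 24 h at 37C. Intracellular ATP read by CellTiter-Glo luminescence after 30 min at room temperature; AC50 from Hill-equation fits of concentration-response data.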
# Tags tell the direction and shape of the fitted curve.
smiles,measurement,setting,value
Cn1cnc([N+](=O)[O-])c1Sc1ncnc2nc[nH]c12,Potency,[1],active: 2.51 µM
CC/C(=C(\c1ccccc1)c1ccc(OCCN(C)C)cc1)c1ccccc1,Potency,[2],"inconclusive: 79.4 µM [cytotoxic, single point]"
same,Potency,[3],active: 25.1 µM
Nc1ncn([C@@H]2O[C@H](CO)[C@@H](O)[C@H]2O)c(=O)n1,Potency,[2],"inconclusive: 39.8 µM [cytotoxic, partial curve]"
same,Potency,[4],"inconclusive: 6.31 µM [cytotoxic, full curve]"
same,Potency,[3],"inconclusive: 31.6 µM [cytotoxic, partial curve, poor fit]"
same,Potency,[5],"inconclusive: 50.1 µM [cytotoxic, partial curve, poor fit]"
Oc1c(Cl)cc(Cl)c(Cl)c1Cc1c(O)c(Cl)cc(Cl)c1Cl,Potency,[4],"inconclusive: 25.1 µM [cytotoxic, partial curve, poor fit]"
same,Potency,[6],"inconclusive: 6.31 µM [cytotoxic, full curve]"
CC(=O)Oc1cc(C(C)C)c(OCCN(C)C)cc1C,Potency,[7],"inconclusive: 0.0126 µM [inhibitor, full curve]"
C[n+]1cc2c3c(ccc2c2ccc4cc5c(cc4c21)OCO5)OCO3,Potency,[7],active: 10 µM
C=C(CC)C(=O)c1ccc(OCC(=O)O)c(Cl)c1Cl,Potency,[8],"inconclusive: 79.4 µM [cytotoxic, single point]"
same,Potency,[2],"inconclusive: 50.1 µM [cytotoxic, partial curve]"
same,Potency,[3],active: 31.6 µM
same,Potency,[6],"inconclusive: 39.8 µM [cytotoxic, partial curve]"
same,Potency,[9],"inconclusive: 50.1 µM [cytotoxic, partial curve, poor fit]"
same,Potency,[10],"inconclusive: 50.1 µM [cytotoxic, partial curve, poor fit]"
